# Test results published in the supplement of paper PMC8728848.
# Some of the results follow.
# Legend:
# Assay in all cases: glycan array binding signal (z-score within array); higher = stronger binding
# Conditions in all cases: glycan notation: IUPAC condensed, linker removed
# [1] = molecular target: GlcNAc(b1-4)GlcNAc(b1-4)GlcNAc(b1-4)GlcNAc(b1-4)GlcNAc(b1-4)GlcNAc
# In short: (§1)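 Negative Z-scores can be read as non-binding. The Z-score is calculated within each array and then averaged across arrays of one protein sequence at different concentrations or buffers and across linkers. Arrays, 3228 in all, were curated from the Consortium for Functional Glycomics database and kept only where the protein sequence was available.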
# [2] = molecular target: GlcNAc(b1-4)GlcNAc(b1-4)GlcNAc(b1-4)GlcNAc(b1-4)GlcNAc(b1-4)GlcNAc(b1-4)GlcNAc
# In short: as §1
# [3] = molecular target: GlcNAc(b1-4)GlcNAc(b1-4)GlcNAc(b1-4)GlcNAc(b1-4)GlcNAc(b1-4)GlcNAc(b1-4)GlcNAc(b1-4)GlcNAc
# In short: as §1
# [4] = molecular target: HexA(a1-3)GalNAc4S(b1-4)GlcA(b1-3)GalNAc4S
# In short: as §1
# [5] = molecular target: HexA(a1-3)GalNAc4S(b1-4)GlcA(b1-3)GalNAc4S(b1-4)GlcA(b1-3)GalNAc4S(b1-4)GlcA(b1-3)GalNAc4S(b1-4)GlcA(b1-3)GalNAc4S(b1-4)GlcA(b1-3)GalNAc4S(b1-4)GlcA(b1-3)GalNAc4S
# In short: as §1
# [6] = molecular target: HexA(a1-3)GalNAc4S(b1-4)IdoA(a1-3)GalNAc4S
# In short: as §1
# [7] = molecular target: HexA(a1-3)GalNAc4S(b1-4)IdoA(a1-3)GalNAc4S(b1-4)IdoA(a1-3)GalNAc4S(b1-4)IdoA(a1-3)GalNAc4S(b1-4)IdoA(a1-3)GalNAc4S(b1-4)IdoA(a1-3)GalNAc4S(b1-4)IdoA(a1-3)GalNAc4S
# In short: as §1
# [8] = molecular target: HexA(a1-3)GalNAc6S(b1-4)GlcA(b1-3)GalNAc6S
# In short: as §1
# [9] = molecular target: HexA(a1-3)GalNAc6S(b1-4)GlcA(b1-3)GalNAc6S(b1-4)GlcA(b1-3)GalNAc6S(b1-4)GlcA(b1-3)GalNAc6S(b1-4)GlcA(b1-3)GalNAc6S(b1-4)GlcA(b1-3)GalNAc6S(b1-4)GlcA(b1-3)GalNAc6S
# In short: as §1
# [10] = molecular target: HexA(a1-4)GlcNAc(a1-4)HexA(a1-4)GlcNAc(a1-4)HexA(a1-4)GlcNAc(a1-4)HexA(a1-4)Man
# In short: as §1
# [11] = molecular target: HexA2S(a1-4)GlcNS6S
# In short: as §1
# [12] = molecular target: HexA6S(a1-4)GlcNS6S(a1-4)IdoA2S(a1-4)GlcNS6S
# In short: as §1
# [13] = molecular target: HexA6S(a1-4)GlcNS6S(a1-4)IdoA2S(a1-4)GlcNS6S(a1-4)IdoA2S(a1-4)GlcNS6S(a1-4)IdoA2S(a1-4)GlcNS6S(a1-4)IdoA2S(a1-4)GlcNS6S(a1-4)IdoA2S(a1-4)GlcNS6S(a1-4)IdoA2S(a1-4)GlcNS6S
# In short: as §1
# [14] = molecular target: Kdn(a2-3)[GalNAc(b1-4)]Gal(b1-3)GlcNAc
# In short: as §1
# [15] = molecular target: Man(a1-2)Man
# In short: as §1
# [16] = molecular target: Man(a1-2)Man(a1-2)Man(a1-3)[Man(a1-2)Man(a1-3)[Man(a1-2)Man(a1-6)]Man(a1-6)]Man(b1-4)GlcNAc(b1-4)GlcNAc
# In short: as §1
# [17] = molecular target: Man(a1-2)Man(a1-2)Man(a1-3)[Man(a1-2)Man(a1-6)[Man(a1-3)]Man(a1-6)]Man(b1-4)GlcNAc(b1-4)GlcNAc
# In short: as §1
# [18] = molecular target: Man(a1-2)Man(a1-2)Man(a1-3)[Man(a1-3)[Man(a1-6)]Man(a1-6)]Man(b1-4)GlcNAc(b1-4)GlcNAc
# In short: as §1
# [19] = molecular target: Man(a1-2)Man(a1-3)[Man(a1-2)Man(a1-6)[Man(a1-3)]Man(a1-6)]Man(b1-4)GlcNAc(b1-4)GlcNAc
# In short: as §1
# [20] = molecular target: Man(a1-2)Man(a1-3)[Man(a1-3)[Man(a1-6)]Man(a1-6)]Man(b1-4)GlcNAc(b1-4)GlcNAc
# In short: as §1
# [21] = molecular target: Man(a1-3)Man
# In short: as §1
# [22] = molecular target: Man(a1-3)Man(a1-6)[Man(a1-3)]Man(b1-4)GlcNAc(b1-4)GlcNAc
# In short: as §1
# [23] = molecular target: Man(a1-3)Man(b1-4)GlcNAc
# In short: as §1
# [24] = molecular target: Man(a1-3)[Man(a1-6)]Man
# In short: as §1
# [25] = molecular target: Man(a1-3)[Man(a1-6)]Man(a1-6)Man(b1-4)GlcNAc(b1-4)GlcNAc
# In short: as §1
# [26] = molecular target: Man(a1-3)[Man(a1-6)]Man(a1-6)[Man(a1-3)]Man
# In short: as §1
# [27] = molecular target: Man(a1-3)[Man(a1-6)]Man(a1-6)[Man(a1-3)]Man(b1-4)GlcNAc(b1-4)GlcNAc
# In short: as §1
# [28] = molecular target: Man(a1-3)[Man(a1-6)]Man(b1-4)GlcNAc(b1-4)GlcNAc
# In short: as §1
# [29] = molecular target: Man(a1-3)[Man(a1-6)]Man(b1-4)GlcNAc(b1-4)[Fuc(a1-6)]GlcNAc
# In short: as §1
# [30] = molecular target: Man(a1-6)Man
# In short: as §1
# [31] = molecular target: Man(a1-6)Man(b1-4)GlcNAc(b1-4)GlcNAc
# In short: as §1
# [32] = molecular target: Man(b1-4)GlcNAc
# In short: as §1
# [33] = molecular target: Man(b1-4)Man(b1-4)Man(b1-4)Man
# In short: as §1
# [34] = molecular target: Man(b1-4)Man(b1-4)Man(b1-4)Man(b1-4)Man
# In short: as §1
# [35] = molecular target: Man(b1-4)Man(b1-4)Man(b1-4)Man(b1-4)Man(b1-4)Man
# In short: as §1
# [36] = molecular target: Man6P(a1-3)Man(a1-3)Man(a1-3)Man(a1-2)Man
# In short: as §1
# [37] = molecular target: Neu(a2-3)Gal(b1-4)Glc
# In short: as §1
# [38] = molecular target: Neu(a2-3)Gal(b1-4)GlcNAc(b1-3)Gal(b1-4)[Fuc(a1-3)]GlcNAc(b1-3)Gal(b1-4)Glc
# In short: as §1
# [39] = molecular target: Neu(a2-3)Gal(b1-4)GlcNAc6S(b1-3)Gal(b1-4)Glc
# In short: as §1
# [40] = molecular target: Neu(a2-3)Gal(b1-4)[Fuc(a1-3)]GlcNAc(b1-3)Gal(b1-4)Glc
# In short: as §1
# [41] = molecular target: Neu(a2-3)Gal(b1-4)[Fuc(a1-3)]GlcNAc6S(b1-3)Gal(b1-4)Glc
# In short: as §1
# [42] = molecular target: Neu(a2-3)Gal6S(b1-4)[Fuc(a1-3)]GlcN(b1-3)Gal(b1-4)Glc
# In short: as §1
# [43] = molecular target: Neu(a2-6)Gal(b1-4)Glc
# In short: as §1
# [44] = molecular target: Neu4Ac5Ac(a2-3)Gal(b1-4)Glc
# In short: as §1
# [45] = molecular target: Neu5Ac(a2-3)Gal
# In short: as §1
binder,measurement,setting,value
"MIC1 (Toxoplasma gondii), O00834 (protein) VGPEAYGEASHSHSPASGRYIQQMLDQRCQEIAAELCQSGLRKMCVPSSRIVARNAVGITHQNTLQWRCFDTASLLESNQENNGVNCVDDCGHTIPCPGGVHRQNSNHATRHEILSKLVEEGVQRFCSPYQASANKYCNDKFPGTIARRSKGFGNNVEVAWRCYEKASLLYSVYAECASNCGTTWYCPGGRRGTSTELDKRHYTEEEGIRQAIGSVDSPCSEVEVCLPKDENPPLCLDESGQISRT",glycan array binding signal (z-score),[1],-0.287
same,glycan array binding signal (z-score),[2],-0.287
same,glycan array binding signal (z-score),[3],-0.287
same,glycan array binding signal (z-score),[4],-0.287
same,glycan array binding signal (z-score),[5],-0.306
same,glycan array binding signal (z-score),[6],-0.299
same,glycan array binding signal (z-score),[7],-0.312
same,glycan array binding signal (z-score),[8],-0.291
same,glycan array binding signal (z-score),[9],-0.312
same,glycan array binding signal (z-score),[10],-0.337
same,glycan array binding signal (z-score),[11],-0.242
same,glycan array binding signal (z-score),[12],-0.269
same,glycan array binding signal (z-score),[13],0.219
same,glycan array binding signal (z-score),[14],-0.274
same,glycan array binding signal (z-score),[15],-0.287
same,glycan array binding signal (z-score),[16],-0.354
same,glycan array binding signal (z-score),[17],-0.311
same,glycan array binding signal (z-score),[18],-0.293
same,glycan array binding signal (z-score),[19],-0.312
same,glycan array binding signal (z-score),[20],-0.312
same,glycan array binding signal (z-score),[21],-0.287
same,glycan array binding signal (z-score),[22],-0.312
same,glycan array binding signal (z-score),[23],-0.287
same,glycan array binding signal (z-score),[24],-0.302
same,glycan array binding signal (z-score),[25],-0.312
same,glycan array binding signal (z-score),[26],-0.288
same,glycan array binding signal (z-score),[27],-0.308
same,glycan array binding signal (z-score),[28],-0.312
same,glycan array binding signal (z-score),[29],-0.29
same,glycan array binding signal (z-score),[30],-0.312
same,glycan array binding signal (z-score),[31],-0.312
same,glycan array binding signal (z-score),[32],-0.287
same,glycan array binding signal (z-score),[33],-0.312
same,glycan array binding signal (z-score),[34],-0.312
same,glycan array binding signal (z-score),[35],-0.3
same,glycan array binding signal (z-score),[36],-0.284
same,glycan array binding signal (z-score),[37],-0.455
same,glycan array binding signal (z-score),[38],0.551
same,glycan array binding signal (z-score),[39],-0.476
same,glycan array binding signal (z-score),[40],-0.479
same,glycan array binding signal (z-score),[41],-0.441
same,glycan array binding signal (z-score),[42],-0.443
same,glycan array binding signal (z-score),[43],-0.469
same,glycan array binding signal (z-score),[44],-0.395
same,glycan array binding signal (z-score),[45],0.052
